# B1: V029 (antibody, V domains shown)
# VH: QVQLVESGGGVVQPGRSLRLSCAASGFTFNSYGMHWVRQAPGKGLEWVAVISYDGTNKYYADSVKGRFTISRDNSKNTLYLQMNSLRAEDTAVYYCAKDSEDCSSTTCYQDYWGQGTLVTVSS
# VL: [about 100 residues cut from this listing]FGPGTKVDIK
# notes: IgG; donor BRA14; source: recombinant monoclonal IgG, produced and purified as previously described
# Target: SARS-CoV-2 Wuhan-Hu-1 RBD (SARS-CoV-2 Wuhan-Hu-1)
# Experiment: BLI
# Details: both partners purified
binder,measurement,value
B1,Kd,12.1 nM

# — article PMC9270183 (The Journal of Experimental Medicine, 2022)
